This is an account of results in paper PMC6919601, “Identification of Plasmodium dipeptidyl aminopeptidase allosteric inhibitors by high throughput screening” (PLoS ONE, 2019).

Each structure is given as a SMILES string. The campaign covered roughly 110,000 compounds. About 230 (0.21%) showed an effect of 50% or more. The list shows a part of the results.
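Note: 30 min substrate incubation versus DMSO and 10 µM JCP410 controls.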

For this experiment, the target named is DPAP1 (Plasmodium falciparum, UniProt Q8IIJ9). In words: primary screen, percent inhibition; read by cleavage of a fluorogenic dipeptide substrate; higher = more effect of the substance. Set-up: species or system P. falciparum D10 trophozoite lysates; single well.
DPAP1, sequence (Q8IIJ9 whole entry, looked up): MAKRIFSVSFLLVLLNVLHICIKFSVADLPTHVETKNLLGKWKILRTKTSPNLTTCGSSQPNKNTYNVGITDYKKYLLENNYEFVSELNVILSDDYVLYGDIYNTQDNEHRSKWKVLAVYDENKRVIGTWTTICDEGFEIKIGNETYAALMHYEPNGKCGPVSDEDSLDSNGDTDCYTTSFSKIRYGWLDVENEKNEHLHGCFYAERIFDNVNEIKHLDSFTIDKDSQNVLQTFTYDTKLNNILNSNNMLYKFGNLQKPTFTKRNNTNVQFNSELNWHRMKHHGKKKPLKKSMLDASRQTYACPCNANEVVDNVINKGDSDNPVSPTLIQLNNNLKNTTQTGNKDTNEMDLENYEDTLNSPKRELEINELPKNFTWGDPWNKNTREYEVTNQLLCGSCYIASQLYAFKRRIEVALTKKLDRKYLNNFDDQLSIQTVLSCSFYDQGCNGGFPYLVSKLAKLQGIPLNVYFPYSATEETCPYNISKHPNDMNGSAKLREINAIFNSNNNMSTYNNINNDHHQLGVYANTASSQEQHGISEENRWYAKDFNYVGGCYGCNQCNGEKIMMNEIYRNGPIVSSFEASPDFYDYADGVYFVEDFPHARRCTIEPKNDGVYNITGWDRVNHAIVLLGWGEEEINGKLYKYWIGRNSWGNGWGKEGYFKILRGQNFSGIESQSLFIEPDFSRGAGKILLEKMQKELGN
As for `COCCCN(Cc1ccco1)C(=O)Cn1ncc2c3ccccc3nc-2c1O`, the “% Inhibition @ 10 uM” value was determined as 0.275%.
The same measure for `N#Cc1c(NC(=O)COCc2cc(-c3ccc(F)cc3)on2)sc2c1CCC2`: 5.32%.
For `O=C(c1ccc(CNS(=O)(=O)c2ccc(Br)cc2)cc1)N1CCc2ccccc2C1` the value was -5.22%; for `CCOc1ccccc1CNC(=O)C1=C(C)C(=O)OC12CCCCCC2`, 0.49%.
`CCC1CCCCN1C(=O)c1cc2c(=O)oc3ccccc3c2s1` (stereo not shown): the “% Inhibition @ 10 uM” value is reported as -3.48%.
Turning to `Cc1ccc(S(=O)(=O)NC(C)C(=O)Nc2ccc(Oc3ccccc3)cc2)cc1` (stereo not shown), the “% Inhibition @ 10 uM” value stood at 0.145%.
The same measure for `COc1cccc(S(=O)(=O)Nc2ccc(C(=O)Nc3ccncc3)cc2)c1`: -1.04%; for `C=CCNC(=O)c1cc(S(=O)(=O)N2CCCC(C)C2)ccc1F` (stereo not shown): 1.21%; for `c1c(C23CC4CC(CC(C4)C2)C3)nc2nc3c(nn12)CCCC3`: -3.92%.
The same measure for `CC(NC(=O)CCCn1sc2ccccc2c1=O)C12CC3CC(CC(C3)C1)C2` (stereo not shown): -4.68%; for `Cc1occc1C(=O)Nc1cccc(Cl)c1C`: -1.24%; for `CCc1cccc2c(C#N)cn(CC(=O)NCc3ccco3)c12`: -3.63%.
For `O=C(NCc1cccs1)C1CCCN1S(=O)(=O)c1cccc2nsnc12` (stereo not shown), the “% Inhibition @ 10 uM” value worked out at 8.9%.
The same measure for `CCCC(=O)C1=C(N2CCN(C3=C(C(=O)CCC)C(=O)CC(C)(C)C3)CC2)CC(C)(C)CC1=O`: -8.49%.
For `COc1cccc(C(=O)N2CCc3cc(OC)c(OC)cc3C2c2ccccc2)c1` (stereo not shown), the “% Inhibition @ 10 uM” value is given as 4.96%.
For `COC(=O)CC1(C)OCC(CN2CCCCC2)O1` (stereo not shown) the value was 4.54%; for `Cc1nn(C(=O)C(C)N2C(=O)c3ccccc3C2=O)c(C)c1Br` (stereo not shown), -3.64%; for `Cc1ccc(C(=O)Nc2ccc3c(c2)C(=O)N(CC2CCCO2)C3=O)cc1` (stereo not shown), 4.75%.
Turning to `N#CC1=C(N)Oc2c(c(O)nc3ccccc23)C1c1ccc(O)cc1` (stereo not shown), the “% Inhibition @ 10 uM” value is on record as -4.04%.
For `CCC(Sc1nc2nccnc2c(=O)n1Cc1ccc2c(c1)OCO2)C(=O)NC1CCCCC1` (stereo not shown), the “% Inhibition @ 10 uM” value was -1.26%.
For `CC(C)C[C@H](NC(=O)OCc1ccccc1)C(=O)NC(C#N)CC(C)(C)C` (stereo partly shown) the value was -3.04%; for `CC1CCc2nn(CC(=O)NC3CCN(Cc4ccccc4)CC3)cc2C1` (stereo not shown), 1.8%.
For `O=C(O)Cn1nnc(-c2ccccc2)n1` the value was -2.28%; for `Cc1ccc(CN2CCC(CNC(=O)c3cc(C)nc4c3c(C)nn4-c3ccc(C)cc3)C2)cc1` (stereo not shown), -9.36%.
The same measure for `CCOc1ccc(-c2nnc(NC(=O)c3ccccc3Br)s2)cc1`: 4.35%; for `Cc1ccc(S(=O)(=O)Cc2nc(-c3ccc(C(=O)N4CCC5(CC4)OCCO5)cc3)oc2C)cc1`: -5.73%; for `CC(C)CSc1nc2c(c(=O)[nH]c(=O)n2C)n1Cc1cccc(Br)c1`: -3.9%.
`COc1ccc(N2C(=O)CC(Nc3ccc(N4CCCCC4)cc3)C2=O)cc1` (stereo not shown): the “% Inhibition @ 10 uM” value is -0.0938%.
Consider `CC1=C(C)CC2C(=O)N(c3ccccc3)C(=O)C2C1` (stereo not shown), for which the “% Inhibition @ 10 uM” value was -3.03%.
The same measure for `O=c1c(Cl)c(N2CCCCCC2)cnn1C12CC3CC(CC(C3)C1)C2`: 1.72%; for `O=C1c2ccccc2S(=O)(=O)N1Cc1ccc(Br)cc1`: 6.74%; for `COc1ccc(-c2c3c(=O)n(C)c(=O)n(C)c3cn2-c2ccc(C)cc2C)cc1`: 4.54%.
For the compound `O=C(c1cc2c(Cl)nc3ccccc3c2s1)N1CCCC1`, the “% Inhibition @ 10 uM” value is 0.521%.
For `CCOC(=O)CNC(=O)[C@H](CC(C)C)NC(=O)[C@@H]1CCCN1C#N` the value was -2.35%; for `COC(=O)c1cc2oc(C)cc2n1CC(=O)NCCC1=CCCCC1`, -6.77%.
For `CC1(C)NC(C(=O)O)Cc2c1[nH]c1ccccc21` (stereo not shown) the value was -0.197%.
The same measure for `CO/C(O)=C1/C(C)=NC(=S)NC1c1ccccc1` (stereo not shown): -2.87%; for `CC(=O)c1cc(C(=O)c2ccccc2)sc1Nc1ccc(C)cc1`: -5.28%.
With `COc1ccc(CN2CCN(c3ccc(F)cc3)CC2)c(C)c1C`, the “% Inhibition @ 10 uM” value was -3.65%.
The same measure for `COc1ccc(-c2cc(C(F)(F)F)n3ncc(C(=O)N(C)Cc4cnn(C)c4C)c3n2)cc1OC`: -2.9%; for `O=C(O)c1cnn(-c2ccccc2)c1-n1cccc1CNCCc1cccs1`: 4.79%; for `CCc1ccc2nc(N3CCC(C(=O)NCCCN4CCCCC4CC)CC3)sc2c1` (stereo not shown): -5.92%.
The same measure for `CCOc1ccc(CCNCc2c(C(=O)O)[nH]c3cc(OC)ccc23)cc1OCC`: -6.3%; for `CCc1ccc(OCC(O)CN2CCCC2)cc1` (stereo not shown): 3.61%.
For `Cc1coc2c1c(C)cc1oc(=O)c3c(c12)CCC3` the value was -8.61%.
For the compound `Cc1ccc(S(=O)(=O)N2c3ccccc3C(Nc3ccccc3)CC2C)cc1` (stereo not shown), the “% Inhibition @ 10 uM” value is 2.7%.
For `CCc1ccc(CNC(=O)c2ccc3c(c2)c(C)c(C)n3C)cc1` the value was 1.95%.
With `CC(=O)N1C=Cc2ccccc2C1c1c[nH]c2ccccc12` (stereo not shown), the “% Inhibition @ 10 uM” value was -1.77%.
The same measure for `Cc1oc(-c2cccs2)nc1Cn1c(=O)cc(C)c2c(C)nn(-c3cccc(F)c3)c21`: 3.96%.
For `COc1cc2c(cc1OC)C(c1ccc(F)cc1)CC(=O)N2` (stereo not shown) the value was -1.2%; for `O=C(NC(=S)n1cnc2ccccc21)C12CC3CC(CC(C3)C1)C2`, -1.29%; for `Cc1c(C)n(C)c2ccc(C(=O)NCCCOC(C)C)cc12`, 4.27%.
For `Cc1ccc(S(=O)(=O)N(CCC#N)CCC#N)cc1` the value was 0.0345%; for `CC1CCC(N2CCN(c3ccccc3)CC2)C1` (stereo not shown), -9.12%.
Consider `S=C(NCc1ccccc1)c1ccccn1`, for which the “% Inhibition @ 10 uM” value was 4.22%.
Take `Cc1nn(C)cc1CNC(=O)Nc1ccc(Cl)c(Cl)c1`: the “% Inhibition @ 10 uM” value is on record as -1.26%.
The same measure for `O=C(c1ccccc1Cl)n1cc(Cl)cn1`: 4.22%; for `COc1cc2[nH]c(C)c(C)c2c2c(C)cc(C)nc12`: 4.33%; for `CC(C)C[C@H](NC(=O)OCc1ccccc1)C(=O)NC(CO)CCC(=O)Nc1ccccc1` (stereo partly shown): -2.35%.
For `Cc1cccc(C)c1NC(=O)c1ccc(Cl)c([N+](=O)[O-])c1` the value was -0.127%.
For `Cc1ccn2cc(CNC(=O)c3ccc(Br)o3)nc2c1` the value was -5.37%; for `Cc1cccc(NC(=O)CCCC(=O)O)n1`, -1.56%.
Regarding `CC1CC(C)CN(C(=O)CCc2nnc3ccc(N4CCCC4)nn23)C1` (stereo not shown), the “% Inhibition @ 10 uM” value is listed as -3.13%.
For `C1CN(C23CC4CC(CC(C4)C2)C3)CCN1` the value was -0.239%.
